Experiment [1] has as its target Treslin/TICRR (TopBP1-interacting replication stimulating protein/TopBP1-interacting checkpoint and replication regulator), endogenous (human (endogenous in 293T and HeLa)) (UniProt Q7Z2Z1). Put plainly: co-IP; IP of endogenous Treslin with rabbit anti-Treslin-970-1400 (control IgG) from native lysates of HeLa Flp-In T-Rex lines expressing MTBP-WT or C-terminal deletions; MTBP by immunoblot. In general terms: Immunoblotting shows a protein as a band on a membrane.

The chains behind the UniProt entries cited, without tags or fusion partners. Where a name states a change or a piece, a line headed by the entry shows the natural chain unless it says otherwise. A line that says so, or that is headed by a name, gives the form on record, which may keep a tag or linker.
UniProt Q7Z2Z1: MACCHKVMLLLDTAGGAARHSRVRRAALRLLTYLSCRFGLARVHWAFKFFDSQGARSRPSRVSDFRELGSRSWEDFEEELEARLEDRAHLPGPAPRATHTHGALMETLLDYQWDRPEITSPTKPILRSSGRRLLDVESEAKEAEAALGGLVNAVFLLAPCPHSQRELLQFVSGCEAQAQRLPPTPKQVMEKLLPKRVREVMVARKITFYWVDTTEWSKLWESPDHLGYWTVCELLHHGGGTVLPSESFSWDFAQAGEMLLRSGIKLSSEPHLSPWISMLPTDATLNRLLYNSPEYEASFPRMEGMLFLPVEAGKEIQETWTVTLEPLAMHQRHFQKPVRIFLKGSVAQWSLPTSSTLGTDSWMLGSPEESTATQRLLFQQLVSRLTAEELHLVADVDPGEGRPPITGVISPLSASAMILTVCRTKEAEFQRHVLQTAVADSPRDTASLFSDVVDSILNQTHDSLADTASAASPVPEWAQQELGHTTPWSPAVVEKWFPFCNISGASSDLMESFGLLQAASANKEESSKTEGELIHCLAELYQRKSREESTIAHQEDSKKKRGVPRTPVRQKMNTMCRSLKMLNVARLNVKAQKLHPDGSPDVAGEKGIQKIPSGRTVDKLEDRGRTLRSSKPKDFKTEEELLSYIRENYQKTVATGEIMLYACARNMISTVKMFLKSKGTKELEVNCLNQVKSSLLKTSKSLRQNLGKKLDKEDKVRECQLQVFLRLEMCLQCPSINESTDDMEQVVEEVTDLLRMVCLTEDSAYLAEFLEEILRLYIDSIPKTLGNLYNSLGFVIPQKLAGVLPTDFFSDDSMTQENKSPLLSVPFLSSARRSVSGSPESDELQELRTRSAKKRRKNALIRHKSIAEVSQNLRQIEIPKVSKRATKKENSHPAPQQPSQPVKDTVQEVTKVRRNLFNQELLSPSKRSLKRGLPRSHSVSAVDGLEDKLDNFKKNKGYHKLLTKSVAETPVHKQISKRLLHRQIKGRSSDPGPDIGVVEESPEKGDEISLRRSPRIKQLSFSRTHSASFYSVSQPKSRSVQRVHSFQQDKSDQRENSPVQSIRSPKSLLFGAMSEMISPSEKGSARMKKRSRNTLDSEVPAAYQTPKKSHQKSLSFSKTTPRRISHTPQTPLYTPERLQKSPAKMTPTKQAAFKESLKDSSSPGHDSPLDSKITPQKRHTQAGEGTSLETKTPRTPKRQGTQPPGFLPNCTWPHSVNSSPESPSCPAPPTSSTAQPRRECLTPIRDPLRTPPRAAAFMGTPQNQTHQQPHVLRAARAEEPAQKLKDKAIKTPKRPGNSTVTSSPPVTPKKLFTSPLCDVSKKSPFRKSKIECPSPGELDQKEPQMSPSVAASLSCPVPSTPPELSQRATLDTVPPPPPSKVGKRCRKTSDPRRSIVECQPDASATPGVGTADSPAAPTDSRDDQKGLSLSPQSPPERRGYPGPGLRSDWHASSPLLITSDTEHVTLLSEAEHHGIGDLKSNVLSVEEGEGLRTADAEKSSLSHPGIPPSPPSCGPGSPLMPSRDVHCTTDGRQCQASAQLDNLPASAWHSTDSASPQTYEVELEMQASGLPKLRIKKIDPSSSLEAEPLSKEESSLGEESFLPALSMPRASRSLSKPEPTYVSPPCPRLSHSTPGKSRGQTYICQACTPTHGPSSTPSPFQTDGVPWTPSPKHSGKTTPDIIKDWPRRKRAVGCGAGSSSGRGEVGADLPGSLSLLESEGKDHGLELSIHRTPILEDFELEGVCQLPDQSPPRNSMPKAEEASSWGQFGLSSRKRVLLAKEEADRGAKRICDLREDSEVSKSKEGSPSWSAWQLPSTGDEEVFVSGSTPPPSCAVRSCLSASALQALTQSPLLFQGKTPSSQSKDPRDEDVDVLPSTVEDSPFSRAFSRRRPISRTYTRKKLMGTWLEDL
GFP-Flag-Treslin-ΔM1 (Q7Z2Z1, form named): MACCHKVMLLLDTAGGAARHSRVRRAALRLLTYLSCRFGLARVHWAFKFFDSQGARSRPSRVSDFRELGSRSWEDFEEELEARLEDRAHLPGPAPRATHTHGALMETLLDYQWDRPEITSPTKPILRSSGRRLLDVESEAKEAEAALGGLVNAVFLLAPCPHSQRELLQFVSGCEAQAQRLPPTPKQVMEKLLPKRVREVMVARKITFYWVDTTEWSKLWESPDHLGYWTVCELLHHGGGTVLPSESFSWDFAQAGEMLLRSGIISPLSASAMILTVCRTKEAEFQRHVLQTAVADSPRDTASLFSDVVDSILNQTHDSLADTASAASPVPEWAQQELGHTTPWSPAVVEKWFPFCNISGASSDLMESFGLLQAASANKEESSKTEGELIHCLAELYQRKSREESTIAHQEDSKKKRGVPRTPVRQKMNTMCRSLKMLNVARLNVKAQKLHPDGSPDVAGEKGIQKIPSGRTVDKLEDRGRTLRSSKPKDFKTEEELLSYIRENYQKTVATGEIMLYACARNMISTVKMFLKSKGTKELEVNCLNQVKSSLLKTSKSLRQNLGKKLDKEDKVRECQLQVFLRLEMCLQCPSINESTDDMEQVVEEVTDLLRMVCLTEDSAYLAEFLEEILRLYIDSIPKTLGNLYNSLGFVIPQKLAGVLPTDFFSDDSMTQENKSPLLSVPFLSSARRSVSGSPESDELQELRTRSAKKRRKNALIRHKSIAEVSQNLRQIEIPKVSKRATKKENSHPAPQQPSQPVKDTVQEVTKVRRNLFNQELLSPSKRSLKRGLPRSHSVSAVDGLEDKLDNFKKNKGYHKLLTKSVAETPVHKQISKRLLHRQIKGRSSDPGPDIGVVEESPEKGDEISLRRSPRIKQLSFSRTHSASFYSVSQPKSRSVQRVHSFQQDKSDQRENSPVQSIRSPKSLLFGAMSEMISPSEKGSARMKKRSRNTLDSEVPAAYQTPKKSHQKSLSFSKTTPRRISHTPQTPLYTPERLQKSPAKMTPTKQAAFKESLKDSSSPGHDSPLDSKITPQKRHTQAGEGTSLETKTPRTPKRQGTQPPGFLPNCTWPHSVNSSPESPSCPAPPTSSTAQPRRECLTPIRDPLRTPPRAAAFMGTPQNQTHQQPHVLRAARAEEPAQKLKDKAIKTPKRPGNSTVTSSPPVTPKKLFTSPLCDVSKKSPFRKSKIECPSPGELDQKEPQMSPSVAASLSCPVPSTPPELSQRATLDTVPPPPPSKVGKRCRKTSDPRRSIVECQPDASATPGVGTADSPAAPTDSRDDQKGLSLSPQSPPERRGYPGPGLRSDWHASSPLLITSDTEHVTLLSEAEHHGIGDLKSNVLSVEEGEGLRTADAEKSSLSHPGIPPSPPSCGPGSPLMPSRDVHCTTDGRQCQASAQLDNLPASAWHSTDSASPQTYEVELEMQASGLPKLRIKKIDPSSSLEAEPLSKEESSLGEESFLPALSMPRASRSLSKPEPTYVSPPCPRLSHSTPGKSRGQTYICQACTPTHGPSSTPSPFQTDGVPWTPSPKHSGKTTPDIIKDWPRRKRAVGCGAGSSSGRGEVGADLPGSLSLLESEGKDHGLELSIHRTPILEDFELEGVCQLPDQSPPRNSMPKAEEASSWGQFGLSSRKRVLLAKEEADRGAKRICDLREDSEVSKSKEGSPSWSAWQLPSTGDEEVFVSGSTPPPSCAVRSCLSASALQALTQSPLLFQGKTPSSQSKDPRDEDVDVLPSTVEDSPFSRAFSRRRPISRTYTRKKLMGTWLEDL

In experiment [2] the target is GFP-Flag-Treslin-ΔM1 (human) (UniProt Q7Z2Z1). Put plainly: co-IP; 293T transiently transfected with GFP-tagged MTBP or Treslin/TICRR; anti-GFP nanobodies on NHS sepharose, lysis buffer with 250 mM NaCl, 1 h at 4°C; endogenous partners by immunoblot.

No constants are given. Whether binding was seen depends on the method and setting. In cells and extracts the contact can be indirect. Some results given as binding are weak or reduced against the parent protein; the word gives no strength. For part of these data: Where a sequence is shown, tags or fusion partners need not be part of it.

B1: MTBP-WT-3×Flag (HeLa Flip-In T-Rex stable line) (protein, UniProt Q96DY7 1-904)
chain: MDRYLLLVIWGEGKFPSAASREAEHGPEVSSGEGTENQPDFTAANVYHLLKRSISASINPEDSTFPACSVGGIPGSKKWFFAVQAIYGFYQFCSSDWQEIHFDTEKDKIEDVLQTNIEECLGAVECFEEEDSNSRESLSLADLYEEAAENLHQLSDKLPAPGRAMVDIILLLSDKDPPKLKDYLPTVGALKHLREWYSAKITIAGNHCEINCQKIAEYLSANVVSLEDLRNVIDSKELWRGKIQIWERKFGFEISFPEFCLKGVTLKNFSTSNLNTDFLAKKIIPSKDKNILPKVFHYYGPALEFVQMIKLSDLPSCYMSDIEFELGLTNSTKQNSVLLLEQISSLCSKVGALFVLPCTISNILIPPPNQLSSRKWKEYIAKKPKTISVPDVEVKGECSSYYLLLQGNGNRRCKATLIHSANQINGSFALNLIHGKMKTKTEEAKLSFPFDLLSLPHFSGEQIVQREKQLANVQVLALEECLKRRKLAKQPETVSVAELKSLLVLTRKHFLDYFDAVIPKMILRKMDKIKTFNILNDFSPVEPNSSSLMETNPLEWPERHVLQNLETFEKTKQKMRTGSLPHSSEQLLGHKEGPRDSITLLDAKELLKYFTSDGLPIGDLQPLPIQKGEKTFVLTPELSPGKLQVLPFEKASVCHYHGIEYCLDDRKALERDGGFSELQSRLIRYETQTTCTRESFPVPTVLSPLPSPVVSSDPGSVPDGEVLQNELRTEVSRLKRRSKDLNCLYPRKRLVKSESSESLLSQTTGNSNHYHHHVTSRKPQTERSLPVTCPLVPIPSCETPKLATKTSSGQKSMHESKTSRQIKESRSQKHTRILKEVVTETLKKHSITETHECFTACSQRLFEISKFYLKDLKTSRGLFEEMKKTANNNAVQVIDWVLEKTSKK
B1: in experiment [1], the binding entry was “binds”.

B2: MTBP (Mdm2 binding protein), endogenous (protein, UniProt Q96DY7 1-904)
chain: MDRYLLLVIWGEGKFPSAASREAEHGPEVSSGEGTENQPDFTAANVYHLLKRSISASINPEDSTFPACSVGGIPGSKKWFFAVQAIYGFYQFCSSDWQEIHFDTEKDKIEDVLQTNIEECLGAVECFEEEDSNSRESLSLADLYEEAAENLHQLSDKLPAPGRAMVDIILLLSDKDPPKLKDYLPTVGALKHLREWYSAKITIAGNHCEINCQKIAEYLSANVVSLEDLRNVIDSKELWRGKIQIWERKFGFEISFPEFCLKGVTLKNFSTSNLNTDFLAKKIIPSKDKNILPKVFHYYGPALEFVQMIKLSDLPSCYMSDIEFELGLTNSTKQNSVLLLEQISSLCSKVGALFVLPCTISNILIPPPNQLSSRKWKEYIAKKPKTISVPDVEVKGECSSYYLLLQGNGNRRCKATLIHSANQINGSFALNLIHGKMKTKTEEAKLSFPFDLLSLPHFSGEQIVQREKQLANVQVLALEECLKRRKLAKQPETVSVAELKSLLVLTRKHFLDYFDAVIPKMILRKMDKIKTFNILNDFSPVEPNSSSLMETNPLEWPERHVLQNLETFEKTKQKMRTGSLPHSSEQLLGHKEGPRDSITLLDAKELLKYFTSDGLPIGDLQPLPIQKGEKTFVLTPELSPGKLQVLPFEKASVCHYHGIEYCLDDRKALERDGGFSELQSRLIRYETQTTCTRESFPVPTVLSPLPSPVVSSDPGSVPDGEVLQNELRTEVSRLKRRSKDLNCLYPRKRLVKSESSESLLSQTTGNSNHYHHHVTSRKPQTERSLPVTCPLVPIPSCETPKLATKTSSGQKSMHESKTSRQIKESRSQKHTRILKEVVTETLKKHSITETHECFTACSQRLFEISKFYLKDLKTSRGLFEEMKKTANNNAVQVIDWVLEKTSKK
B2: in experiment [2], the binding result is reported as “binds”.

B3: MTBP-ΔS7M-C (HeLa Flip-In T-Rex stable line) (domain or fragment, UniProt Q96DY7 1-823)
chain: MDRYLLLVIWGEGKFPSAASREAEHGPEVSSGEGTENQPDFTAANVYHLLKRSISASINPEDSTFPACSVGGIPGSKKWFFAVQAIYGFYQFCSSDWQEIHFDTEKDKIEDVLQTNIEECLGAVECFEEEDSNSRESLSLADLYEEAAENLHQLSDKLPAPGRAMVDIILLLSDKDPPKLKDYLPTVGALKHLREWYSAKITIAGNHCEINCQKIAEYLSANVVSLEDLRNVIDSKELWRGKIQIWERKFGFEISFPEFCLKGVTLKNFSTSNLNTDFLAKKIIPSKDKNILPKVFHYYGPALEFVQMIKLSDLPSCYMSDIEFELGLTNSTKQNSVLLLEQISSLCSKVGALFVLPCTISNILIPPPNQLSSRKWKEYIAKKPKTISVPDVEVKGECSSYYLLLQGNGNRRCKATLIHSANQINGSFALNLIHGKMKTKTEEAKLSFPFDLLSLPHFSGEQIVQREKQLANVQVLALEECLKRRKLAKQPETVSVAELKSLLVLTRKHFLDYFDAVIPKMILRKMDKIKTFNILNDFSPVEPNSSSLMETNPLEWPERHVLQNLETFEKTKQKMRTGSLPHSSEQLLGHKEGPRDSITLLDAKELLKYFTSDGLPIGDLQPLPIQKGEKTFVLTPELSPGKLQVLPFEKASVCHYHGIEYCLDDRKALERDGGFSELQSRLIRYETQTTCTRESFPVPTVLSPLPSPVVSSDPGSVPDGEVLQNELRTEVSRLKRRSKDLNCLYPRKRLVKSESSESLLSQTTGNSNHYHHHVTSRKPQTERSLPVTCPLVPIPSCETPKLATKTSSGQKSMHESKTSRQIK
For the molecule B3, in experiment [1], the binding result is on record as “binds”.

Values taken from article PMC6377148.
